# The inconclusive results got no clear call from the source; some entries with a clear call stand among them for comparison. For some assays here: Potencies of inconclusive entries are left out as doubtful fits. Active and inactive are the calls of the source. Calls follow the shape of the dose curve; as a rule, active = well fitted curve in the direction sought with a large enough effect; inconclusive = small, poorly fitted or top-dose-only effect, or another doubt; inactive = no such curve, though single readings can be large; an effect the other way counts as inactive or inconclusive.
# Key:
# [1] = qHTS screen for small molecules that inhibit ELG1-dependent DNA repair: Hit Confirmation with 5FU Viability (AID 624250); details: cell viability with 5-FU; series mostly up to 46.1 µM;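 also: viability measured 16 h after compound addition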
# How it was run: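 Using CellTiter-Glo, viability of ELG1-luciferase HEK293T cells was assessed 16 h after adding compounds with 5-fluorouridine at a final 10 µM.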
# [2] = biological target: Luciferin 4-monooxygenase (Photinus pyralis) (UniProt P08659); assay: qHTS screen for small molecules that inhibit ELG1-dependent DNA repair: Hit Confirmation in Biochemical Luciferin Assay (AID 624253); details: purified firefly luciferase, luminescence counter-screen; series mostly up to 57.5 µM
# How it was run: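 Biochem luciferin/luciferase assay; substrate + cpd (pintool) + enzyme; luminescence readout, CCD imager.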
# [3] = biological target: DNA polymerase iota (Homo sapiens) (UniProt Q9UNA4); assay: qHTS for Inhibitors of Polymerase Iota: Confirmatory Assay for Cherry-picked Compounds (AID 720496); details: Pol iota primer extension, TAMRA/BHQ fluorescence
# Sequence of UniProt Q9UNA4 (Q9UNA4 whole entry, looked up): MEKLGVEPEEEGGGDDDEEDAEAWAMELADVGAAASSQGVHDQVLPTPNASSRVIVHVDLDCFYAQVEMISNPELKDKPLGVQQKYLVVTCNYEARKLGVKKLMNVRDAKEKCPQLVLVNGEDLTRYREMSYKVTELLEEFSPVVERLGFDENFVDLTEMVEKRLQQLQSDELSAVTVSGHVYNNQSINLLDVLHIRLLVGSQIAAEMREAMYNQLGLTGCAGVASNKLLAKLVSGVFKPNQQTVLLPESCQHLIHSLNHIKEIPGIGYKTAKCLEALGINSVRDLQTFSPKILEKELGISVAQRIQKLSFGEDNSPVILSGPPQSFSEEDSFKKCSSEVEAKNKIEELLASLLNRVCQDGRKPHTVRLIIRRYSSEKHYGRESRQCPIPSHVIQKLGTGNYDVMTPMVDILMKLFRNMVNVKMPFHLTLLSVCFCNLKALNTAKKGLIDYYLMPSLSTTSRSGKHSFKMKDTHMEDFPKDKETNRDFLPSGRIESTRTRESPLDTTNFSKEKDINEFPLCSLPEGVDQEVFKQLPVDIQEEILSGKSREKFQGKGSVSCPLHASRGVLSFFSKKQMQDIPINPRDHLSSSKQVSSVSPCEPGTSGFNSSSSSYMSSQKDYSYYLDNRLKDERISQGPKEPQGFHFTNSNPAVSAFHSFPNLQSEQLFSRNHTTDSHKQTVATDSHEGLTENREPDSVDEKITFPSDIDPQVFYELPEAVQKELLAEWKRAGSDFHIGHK
# How it was run: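 Enzyme (10 nM Pol iota) and compound sit together for 15 min at room temperature. Adding annealed primer/TAMRA-reporter/BHQ-2-template substrate, 50 nM final, starts the reaction, which is followed by fluorescence over 10 min.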
# [4] = biological target: DNA polymerase eta (Homo sapiens) (UniProt Q9Y253); assay: qHTS for Inhibitors of Polymerase Eta: Confirmatory Assay for Cherry-picked Compounds (AID 720502); details: Pol eta primer extension, TAMRA/BHQ fluorescence, 10 min
# Sequence of UniProt Q9Y253 (Q9Y253 whole entry, looked up): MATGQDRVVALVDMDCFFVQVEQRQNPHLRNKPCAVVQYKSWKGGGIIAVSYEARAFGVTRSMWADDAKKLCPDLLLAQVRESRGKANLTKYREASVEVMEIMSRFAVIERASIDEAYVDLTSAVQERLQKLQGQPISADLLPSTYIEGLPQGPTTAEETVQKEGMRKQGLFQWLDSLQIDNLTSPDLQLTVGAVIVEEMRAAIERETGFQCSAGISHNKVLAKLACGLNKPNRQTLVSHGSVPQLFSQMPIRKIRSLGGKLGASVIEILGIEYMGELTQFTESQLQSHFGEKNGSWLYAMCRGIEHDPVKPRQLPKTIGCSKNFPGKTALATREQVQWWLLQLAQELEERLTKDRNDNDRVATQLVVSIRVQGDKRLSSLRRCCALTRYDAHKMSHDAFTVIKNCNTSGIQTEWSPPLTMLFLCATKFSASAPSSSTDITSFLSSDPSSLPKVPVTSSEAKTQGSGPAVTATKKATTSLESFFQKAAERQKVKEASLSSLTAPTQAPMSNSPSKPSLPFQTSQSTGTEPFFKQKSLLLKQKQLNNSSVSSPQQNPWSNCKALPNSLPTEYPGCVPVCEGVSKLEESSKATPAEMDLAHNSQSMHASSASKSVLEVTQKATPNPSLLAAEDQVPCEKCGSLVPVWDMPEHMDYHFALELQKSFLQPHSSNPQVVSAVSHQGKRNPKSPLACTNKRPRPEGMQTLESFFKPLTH
# How it was run: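 Human Pol eta at 10 nM was preincubated with compound for 15 min at room temperature. Reaction was started with TAMRA/BHQ-2-labelled primer-template substrate (50 nM final), with fluorescence read at 0 and 10 min (ex 525, em 598 nm).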
# [5] = biological target: Tumor susceptibility gene 101 protein (Homo sapiens) (UniProt Q99816); assay: qHTS Assay for Iinhibitors of HIV-1 Budding by Blocking the Interaction of PTAP/TSG101: Hit Validation (AID 651600); details: PTAP peptide/TSG101 UEV interaction, biochemical assay; series mostly up to 57.5 µM; also: nearly all actives have a fitted effect of over 70% in size
# Sequence of UniProt Q99816 (Q99816 whole entry, looked up, the tested form may be a part): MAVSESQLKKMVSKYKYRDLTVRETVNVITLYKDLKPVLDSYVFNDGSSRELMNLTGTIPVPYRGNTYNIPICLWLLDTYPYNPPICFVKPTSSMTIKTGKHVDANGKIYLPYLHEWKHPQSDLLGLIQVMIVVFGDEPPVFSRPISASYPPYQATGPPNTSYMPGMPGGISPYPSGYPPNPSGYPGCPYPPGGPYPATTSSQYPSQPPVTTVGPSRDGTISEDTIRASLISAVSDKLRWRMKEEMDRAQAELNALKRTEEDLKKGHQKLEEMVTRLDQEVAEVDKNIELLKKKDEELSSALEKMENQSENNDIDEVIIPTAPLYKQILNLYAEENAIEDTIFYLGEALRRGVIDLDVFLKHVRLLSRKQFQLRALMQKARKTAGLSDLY
# How it was run: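 Displacement of a FITC-labeled PTAP-motif peptide (50 nM) from the Tsg101 binding domain (10 uM) was monitored by fluorescence polarization after a 20 min room-temperature incubation.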
# Potency is read from the fitted curve at half-maximal effect; tags tell the direction and shape of the fitted curve.
smiles,measurement,setting,value
Cc1ccc(-c2[nH]ncc2/C=N/n2c(COc3ccccc3)nc3ccccc3c2=O)cc1,Potency,[1],"inconclusive [cytotoxic, single point]"
same,Potency,[2],"inconclusive [inhibitor, partial curve]"
COc1cc(/C=C(\C#N)C(=O)Nc2cccc(C(=O)O)c2)ccc1OCc1ccc(Cl)cc1,Potency,[3],"inconclusive [inhibitor, full curve]"
COc1ccc(Cn2c(O)c(C=Nc3ccccc3C(=O)O)c3ccccc3c2=O)cc1,Potency,[4],active: 67.5 µM
O=c1oc2ccccc2cc1-c1nc(-c2cccs2)cs1,Potency,[5],"inconclusive [inhibitor, full curve]"
O=C(NCc1cc(C(F)(F)F)ccc1Cl)c1cccc2c1C(=O)c1ccc(N3CCC(Cc4ccccc4)CC3)cc1S2(=O)=O,Potency,[5],active: 13 µM
CC(C)(C)c1cc[n+](-c2[nH]c(=O)sc2/C=N/NC(=O)c2ccccc2[O-])cc1,Potency,[5],"inconclusive [inhibitor, partial curve]"
CC(=O)N1c2ccccc2C(=O)C1N1CCCCC1 (centres undefined),Potency,[5],inactive
CCCCn1c(SCC(=O)c2cc(OC)ccc2OC)nc2cc(S(N)(=O)=O)ccc21,Potency,[5],inactive
CCN(CC)S(=O)(=O)c1ccc(C(=O)/C=C/c2ccc(-c3ccc([N+](=O)[O-])cc3)o2)cc1,Potency,[5],"inconclusive [inhibitor, single point]"
Cn1c(-c2ccc(C=O)s2)nc2c3ccccc3c3ccccc3c21,Potency,[5],"inconclusive [inhibitor, single point]"
O=C(c1ccccc1)[C@@H]1[C@@H]2C(=O)N(c3ccc(F)cc3)C(=O)[C@@H]2C2CCCN21 (some centres undefined),Potency,[5],"inconclusive [inhibitor, single point]"
Cc1c(C(=O)NCc2ccccc2)sc2nc3n(c(=O)c12)CCCCC3,Potency,[5],inactive
COc1ccc(Br)cc1-c1nc(CCl)cs1,Potency,[5],"inconclusive [inhibitor, partial curve, poor fit]"
CSC1=NSC2=NC(=O)/C(=C/c3coc4ccc(O)cc4c3=O)C(=N)N12,Potency,[5],"inconclusive [inhibitor, full curve, poor fit]"
Cc1c2ccccc2nc2c(F)c(N(C)C)c(F)c(F)c12,Potency,[5],"inconclusive [inhibitor, partial curve]"
N#C/C(=C\C=C\c1ccccc1)c1nc(-c2ccc3c(c2)OCO3)cs1,Potency,[5],"inconclusive [inhibitor, single point]"
C/C(O)=c1/ccc2cccc3nc(C)nc1c23,Potency,[5],"inconclusive [inhibitor, single point]"
NC(=O)CSc1nc2c(sc3ccccc32)c(=O)n1CCCC(=O)NCC1CCCO1 (centres undefined),Potency,[5],"inconclusive [inhibitor, single point]"
Cc1cc[n+](-c2[nH]c(=O)sc2/C=N/NC([S-])=Nc2ccccc2)cc1C,Potency,[5],"inconclusive [inhibitor, partial curve]"
Nc1ccc2nc(-c3ccccc3)c(-c3ccccc3)nc2c1,Potency,[5],"inconclusive [inhibitor, single point]"
Cc1ccccc1C1CC(=O)Oc2cc(O)ccc21 (centres undefined),Potency,[5],"inconclusive [inhibitor, full curve]"
COc1ccc(Nc2nc(-c3cccnc3)nc3ccccc23)cn1,Potency,[5],"inconclusive [inhibitor, single point]"
CCOc1ccc2nc3cc(NCc4ccc(OC)cc4)ccc3c(N)c2c1,Potency,[5],"inconclusive [inhibitor, partial curve, poor fit]"
Cc1ccccc1-n1nc(C)c2c1N=C1C(Cl)=CC(Cl)=CN1C2c1ccc(C(=O)O)cc1 (centres undefined),Potency,[5],"inconclusive [inhibitor, partial curve, poor fit]"
Oc1[nH]c2ccccc2c1N=Nc1ccccc1,Potency,[5],"inconclusive [inhibitor, single point]"
Cc1cc2c(cc1C)NC(c1c(C)n(C)n(-c3ccccc3)c1=O)C1=C(CC(C)(C)CC1=O)N2 (centres undefined),Potency,[5],inactive
CCn1c(C)cc(C=C2C(=O)c3ccccc3C2=O)c1C,Potency,[5],"inconclusive [inhibitor, single point]"
Cc1cc2nc3c(=O)n(CCc4ccccc4)c(=O)[nH]c3nc2cc1N,Potency,[5],"inconclusive [inhibitor, full curve]"
